# Measured values published in the supplement of paper PMC4604168 (melanoma cell lines).
# The other results are listed elsewhere or left out. Many values rest on one well or one pass, so single values are uncertain.
# Tested on: RPMI7951
# Test: cell count relative to DMSO control; melanoma cells; higher = more viable cells
# Conditions: library dose: standard library concentration; 72 h
# 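Further: cells treated in 1,536-well plates, then fixed and DAPI-stained, with nuclei counted from automated high-throughput microscope images.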
row,Structure (SMILES),cell count [%]
1,"NC1(c2ccc(-c3nc4ccn5c(=O)[nH]nc5c4cc3-c3ccccc3)cc2)CCC1 + Oc1nc(-c2ccc(C(F)(F)F)cc2)nc2c1CSCC2 [XAV939] (first compound 2 µM, partner dose 10 µM)",103
2,"CS(=O)(=O)c1ccc(C(=O)Nc2ccc(Cl)c(-c3ccccn3)c2)c(Cl)c1 [vismodegib] + O=C(O)C(=O)Nc1sc2c(c1C(=O)O)CCNC2 [TCS401] (first compound 5 µM, partner dose 8.33333 µM)",90.7
3,"CS(=O)(=O)c1ccc(C(=O)Nc2ccc(Cl)c(-c3ccccn3)c2)c(Cl)c1 [vismodegib] + Cn1c(Nc2ccc(C(F)(F)F)cc2)nc2cc(Oc3ccnc(-c4ncc(C(F)(F)F)[nH]4)c3)ccc21 [CHIR265] (first compound 5 µM, partner dose 0.4 µM)",54.5
4,"CN(c1ncccc1CNc1nc(Nc2ccc3c(c2)CC(=O)N3)ncc1C(F)(F)F)S(C)(=O)=O + COc1cc2ncnc(Nc3ccc(Oc4ccccc4)cc3)c2cc1OC [SrcI1] (first compound 0.4 µM, partner dose 10 µM)",41
5,"NC1(c2ccc(-c3nc4ccn5c(=O)[nH]nc5c4cc3-c3ccccc3)cc2)CCC1 + Oc1cc(-c2nc(-c3ccccc3)[nH]c2-c2ccncc2)ccc1Cl [L779450] (first compound 2 µM, partner dose 1 µM)",72.8
6,"CS(=O)(=O)c1ccc(C(=O)Nc2ccc(Cl)c(-c3ccccn3)c2)c(Cl)c1 [vismodegib] + C[C@]1(c2nc3c(C(N)=O)cccc3[nH]2)CCCN1 [Veliparib] (first compound 5 µM, partner dose 7 µM)",101

# Tested on: RVH-421
# Test: as above
# Conditions: library dose: standard library concentration; 72 h
row,Structure (SMILES),cell count [%]
1,"CN(c1ncccc1CNc1nc(Nc2ccc3c(c2)CC(=O)N3)ncc1C(F)(F)F)S(C)(=O)=O + C[C@@H]1CCN(C(=O)CC#N)C[C@@H]1N(C)c1ncnc2[nH]ccc12 [CP690550] (first compound 0.4 µM, partner dose 5 µM)",75.9
2,"CCCS(=O)(=O)Nc1ccc(F)c(C(=O)c2c[nH]c3ncc(Cl)cc23)c1F + Oc1cc(-c2nc(-c3ccccc3)[nH]c2-c2ccncc2)ccc1Cl [L779450] (first compound 0.4 µM, partner dose 1 µM)",69
3,"C=C(c1ccc(C(=O)O)cc1)c1cc2c(cc1C)C(C)(C)CCC2(C)C [Bexarotene] + Oc1nc(-c2ccc(C(F)(F)F)cc2)nc2c1CSCC2 [XAV939] (first compound 10 µM, partner dose 10 µM)",72.4
4,"C=C(c1ccc(C(=O)O)cc1)c1cc2c(cc1C)C(C)(C)CCC2(C)C [Bexarotene] + CCCS(=O)(=O)Nc1ccc(F)c(C(=O)c2c[nH]c3ncc(Cl)cc23)c1F [PLX4720] (first compound 10 µM, partner dose 0.4 µM)",69.5
5,"CN(c1ncccc1CNc1nc(Nc2ccc3c(c2)CC(=O)N3)ncc1C(F)(F)F)S(C)(=O)=O + Cc1cc(N2CCOCC2)cc2[nH]c(-c3c(NC[C@@H](O)c4cccc(Cl)c4)cc[nH]c3=O)nc12 [BMS536924] (first compound 0.4 µM, partner dose 1 µM)",108
6,"CS(=O)(=O)c1ccc(C(=O)Nc2ccc(Cl)c(-c3ccccn3)c2)c(Cl)c1 [vismodegib] + O=C(CCCCCCC(=O)Nc1ccccc1)NO [vorinostat] (first compound 5 µM, partner dose 0.4 µM)",117
7,"NC1(c2ccc(-c3nc4ccn5c(=O)[nH]nc5c4cc3-c3ccccc3)cc2)CCC1 + Nc1cccc2c1CN(C1CCC(=O)NC1=O)C2=O [lenalidomide] (first compound 2 µM, partner dose 5 µM)",81.3
8,"CS(=O)(=O)c1ccc(C(=O)Nc2ccc(Cl)c(-c3ccccn3)c2)c(Cl)c1 [vismodegib] + COc1ccc(-c2ccc3c(N4CCOCC4)nc(N4C[C@@H](C)O[C@@H](C)C4)nc3n2)cc1CO [KU0063794] (first compound 5 µM, partner dose 0.1 µM)",115
9,"CS(=O)(=O)c1ccc(C(=O)Nc2ccc(Cl)c(-c3ccccn3)c2)c(Cl)c1 [vismodegib] + C=CCn1c(=O)c2cnc(Nc3ccc(N4CCN(C)CC4)cc3)nc2n1-c1cccc(C(C)(C)O)n1 [MK1775] (first compound 5 µM, partner dose 0.1 µM)",95.1
